Where two headings read alike, the source gives them in different places.
Legend:
A/FM-1/1/47 (H1N1) = assay: microbe, parasite or virus in culture; format: cell-based; details: for IC50: read-out: IC50 A/FM-1/1/47 (H1N1)
A/Aichi/2/68 (H3N2) = assay: microbe, parasite or virus in culture; format: cell-based; details: for IC50: read-out: IC50 A/Aichi/2/68 (H3N2)
[1] = Influenza A virus, H1N1, MDCK, 48 h
[2] = Influenza A virus, H3N2, MDCK, 48 h

Row | Molecule | IC50 (A/FM-1/1/47 (H1N1); [1]) [µM] | inhibition effect on A/FM-1/1/47 (H1N1) (in words) (A/FM-1/1/47 (H1N1); dose-dependent, Figure 4) | IC50 (A/Aichi/2/68 (H3N2); [2]) [µM] | inhibition effect on A/Aichi/2/68 (H3N2) (in words) (A/Aichi/2/68 (H3N2); dose-dependent, Figure 4) | IC50 (A/FM-1/1/47 (H1N1)) [µM] | IC50 (A/Aichi/2/68 (H3N2)) [µM]
1 | CCCCCc1cc(=O)c2c(CC(=O)OC)cc(O)cc2o1 [Compound 14, pestalotiopsone F] | 6.74 ± 1.26 | obvious inhibition effect | 6.17 ± 1.46 | obvious inhibition effect | – | –
2 | 5-chloroisorotiorin | – | – | – | – | 38 ± 15.1 | 10.1 ± 1.84
3 | CCCCCCCc1cc(=O)c2c(CC(=O)OCC)cc(O)cc2o1 [Compound 15, pestalotiopsone B] | 4.82 ± 1.9 | – | 6.76 ± 2.72 | – | – | –
